Laboratory results taken from the supplement of paper PMC10681739.
± gives the standard deviation of the averaged measurements. Over roughly 4,000 sequences, “arbitrary fluorescence units” has its median near 830; the highest 2% begin near 6,500. Most of the strongest results are missing from this list.

Target: RUNX1 (UniProt Q01196)
Assay: RUNX1 binding intensity (PBM fluorescence), RUNX1 alone (arbitrary fluorescence units); higher = stronger binding
Conditions: RUNX1 concentration 2 nM; ETS1 concentration 0 nM
Description: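 gcPBM on 36-bp genomic-derived probes (partner site mutated) containing one RUNX1 site and no ETS1 site. Recombinant human RUNX1 (2 nM) was incubated alone or with ETS1 (25 nM) and detected by anti-RUNX1 antibody fluorescence. Values are medians over 4 replicate spots (not normalised). The probes sit in constant array flanks that are not printed.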
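Also: Full-length recombinant human RUNX1 bound to double-stranded DNA microarray spots, detected with an Alexa488-labelled secondary antibody after the anti-RUNX1 primary, read as scanned spot fluorescence.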

UniProt Q01196, sequence (Q01196 whole entry): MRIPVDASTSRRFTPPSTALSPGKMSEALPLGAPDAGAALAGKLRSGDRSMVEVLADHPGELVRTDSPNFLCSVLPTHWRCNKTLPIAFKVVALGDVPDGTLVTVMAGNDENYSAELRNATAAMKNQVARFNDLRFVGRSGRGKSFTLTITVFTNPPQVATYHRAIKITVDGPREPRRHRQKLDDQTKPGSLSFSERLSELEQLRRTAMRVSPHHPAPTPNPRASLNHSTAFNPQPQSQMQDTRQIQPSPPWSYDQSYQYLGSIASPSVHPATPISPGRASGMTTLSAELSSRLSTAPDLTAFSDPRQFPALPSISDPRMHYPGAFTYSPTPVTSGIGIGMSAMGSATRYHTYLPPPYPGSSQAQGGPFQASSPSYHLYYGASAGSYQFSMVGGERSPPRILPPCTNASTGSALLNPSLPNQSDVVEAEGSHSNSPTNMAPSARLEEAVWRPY

Sequence	RUNX1 binding intensity
AACCCTGAGACAGCCGCAGCCACTTGCTGGGTGAGG	775
CAGCACACACCGCACGGGGCGACAGCTTACGGGGGC	911
GTGCGTCCTTCAGTCTCACCTCCCTGCGGCGTGGGC	768
TTGCGCCGGGCGCCACTTTCGGTCCCCGTGGTCACG	768
GGGAGGGCCGAAGGCGGCTCTGCGGCAGCAAGCCCC	1220
AGCTCAATTTGCTGGCGTGTAACATGGCCACAAGGG	711
ACACAAACAGCAAGTGTTTGTGGTCCCTGCCTTTAG	772
GAGATTCTGTGGCTGGGTCTGTCTGTTTCGTGCTAG	810
CGGACCGAAAGTGCCCGAGGGCGGCCGCAGAACGGT	766
GGAGATGTGGGCGCCGAGAAGTGGAGCAGGGAGCGA	705
AGGCCACCCCCTGCCTCCGCCCGCGGGTCGCAGCCT	757
GGTGGCCGCAAATAGATATGCATACGGGCGTTACAC	800
GGAGCGGCCGAAGGGAGCTTGCGGCGGGAGGCTGAA	739
CCAGAACAAACCACACCCCACTGCCTGTTGCATGCA	1210
GGTTTTGGTAAGAAGGAAAGTGGTTTTCATAGGAAG	787
CCTTGCGTCCTTCGGTGCAACCTGCGGGAATCCCAT	819
AGCTTGTACGGTGGCTGCTGCGCTGCCGCAACGAAT	764
GACGAAGCGCGGTCTCACCACGCCCGGGGAAATCGG	784
AACAAGGCTGTGGGTGAACCCCAGCTTGCTGCAAAG	700
CATGGGGAGGAGGAGGTGGTGGCGGCCGCAGGCCAG	793
CAGTGGTTAGGCAGAGGAGGACATACTGCCTGTAAT	812
GCCGGCGACCTCCTCCCTTTGTGGGCGCTCCCTGCA	802
CTGGTGCCCACAGGACAAATGTCATGCTGTATGTAT	744
ACCTTCGCCGGGTGCTGTGGCTGAAACCACAGCATT	854
TGGGGGACGGGACCGCGGGAACCCGGCAACGCCTGG	740

Sequence	RUNX1 binding intensity
AGCCAGCCTGATAGGAGATCCTCCCACCACAGCTGA	744
TGTTAGGACGTAAGACCGAAAGAGACACACCCACAA	829
CTAGCCATGAAGATAAAGAAGAAACCACCAAAGAGA	785
CAGAGGCAGCCCACCCCATAAAAGAACCACAGATAA	814
GTGGCCACTTGAACCGCAGATGCTTGCTGGGCTGGT	2540
GCTCAAGTATCGGAAAGGCCCGCAGAAAGAAGGGCA	734
CGCCCGACCGCGTCACGTGTTCGTCAATTGCCTTCA	1090
ACCGCTGAGGCGGTTTCCCACCGACTGCCTTTCCAT	1040
CCAGGGCCGAAAGTGCTGGTGGTGGTTTCCATCATG	800
TGACAGACCCGGGAATAAGAGGAGACCACACACTTG	772
CTGTGTAAATAAAGCCACAGACTTCCACCTACAGGT	954 ± 84
AAGACAGTCGCGGTGGGCGGGGACAGGCAGTAAGAC	778
ATGGTGCCCGCCGCAGCCGAGGACCGTATAGCCCGC	810
CGAAGGAGCAAGCTGCACAGGGTGTCTGTGGCTGGC	625
CGAGCATGAAGAAAGCCAGGCTGCGGGGCTGGGGGC	727
ACTGATAACAAGACCGCGAGTCAGGGAGCCTGGGTT	817
TGGATAACCGCGCAAGGTCTCGCGGCAAGGAGAGGA	812
TGGAATTGAAAGGAGGCTGGCGCCACCGCAGAGGAC	765
TGCCGTTTTCGGGTCACCCAGGCAGCTTGTGGCGGC	710
CAGCCCAGTGGGAACTGGGAGGGGCGGTCAGCAAGA	792
GCTGCGGCCCAGCCCGAGCCAGGCCTTGCTCCCCTC	875
AGAATTACCAGGGAGCCGAGCGCTGCGGGCTAGCGG	674
GCCAAGAAACCACCCAATAGGAGGCCGTAAGCATCG	800
CATGCCCGTCCGACCGCGCTGCTTCGGCCTTGCAGC	778
CGCCCTCCAGAAGAGAGGGCGGACCGCGGCCGCGCA	732 ± 64

Sequence	RUNX1 binding intensity
GGTCTGGAGGACGTTTGCAGCTGCTGTGGGTGGTGG	787
AGGCGCGCTCTTGCGGCGTCACGGAGGGCGCGCTCT	815
GGTGTGGTCAAAACAAACCTCCCAGATCCCGTACGT	845
GGCGTGGCCGAAGGCGCGCTGCGGCGCTGCTTTCTC	721
TGAGGCAGTGTAAGTCACAATAAGAAGCCACATATA	717
CTCACCTCCCCGGCAGCTCCCTCGCCCCGACCGCAG	1600
CTTTCGCTCCCTTTCCCCGCCTCTTAGTCCCGCAGA	1560
CCCCTGCGGGCCGCCGCTGCGCCCGTGCAGCCGTCA	830
ACGGTAATAACCACACACACTTGCTCTTAATCAGTG	1410
GACCTCTTTTCATGTACTAGCAACTCCCCGCAGCAG	1140
GACGCAATCCCACAGCCTTCTGGGAGACGTAGTTTA	930
AGACAGTCACTCACCACAAACAGGAGATAGAACAAG	1120
TGAGTCACACCCTGCAGGGCTGCGGTATCCTGGCTT	917
AATCCAACACCTCCTCCTCCACCGCAGAAAGGCAAC	1800
GCTCGCAGCCGCAAGAGGTGGCCTTCGGTTCCAGGG	830
CCTGTCTGCTTCGGCCCGGCTTCGGCCCACAGTCAA	931
GGTAAACCACAGCTGCCTGAAGCATGAAGATGAGGG	2050
TGGTGGCTATTGCCTCTCCCGCTGTGGTCCCTGGAG	666
GGTGTGGGTGCTGCTCCAGGCTATCGGCTGCTCACC	659
AACAGTTGCTTGCGGGATATGCTTTCTTGGATCTGT	819
AAGCTGCGCGGTCCATGGCGCGTATGCCGGGCCCTG	657
CTAACCCTTCTCTTTCTGCAAAAACCACAACAAAGG	2930 ± 99
GAAGCCCCGCAATTATTGGGGGGCTTGCTCCCGCGC	733
TAAAGAAACTGGATGACTGTGGTTTACTGCGAGCAT	737
TATGCTGGGACCGCTAGCCCTTACGGCGCGCCTCAG	683

Sequence	RUNX1 binding intensity
TTGCTGTGGTTTAGTCTCTGCAGCTTTCTGTTGGCT	3060
GCCGCTGAAAGCCCACAACCAGCGCAACGCAGGCGA	807
CCGTTACCGCGCTCGTCTTGCCACCTCCTCTGGAGT	1100
CCCCACGCGGTGTCGGTAACGCGGGAGCCTGTGTCC	866
GCTAAAGGGAGCTCTGTACAGCTGTGGTAAGGTGGC	818
CGTCGTCTGGGAAACCGCCGACTTCCAGCCGCGCAG	859
CTCGTGTTTTGTGGCTGTGTTCTGTCCGTTCAGTTG	897.6 ± 6
CTCGGGATTTGTGGTCCACCCGGCTGAACTCGCGGC	788
TGCGACGGGAGCTGGAACTTGCTAACCACAAAACCC	2370
ATGGATGCGGTTGCTTGCGTGAGGAGATACTTGATG	1410
CTGCGCTTCAGCTTCACCCGGAGTACAGCGGTCCTG	754
GAAGCGCTGGGCGCAAGTGGCTGTGGCTTTGCCCTT	735
CTCTCTGGGCCGAAGGAACGCGGTCACCCTGAGAAA	715
ACGACGTCCCTGAAGTGCTGCGGCAATGTTGCTCTT	722
TGTCGCCACCGCTGGATGGAGCCTTGCCGGGTCTCC	838
TTAAGGAGCTCCCGGGGCCGCGGGTAGAGGCGGGTG	768
ATCAGGGGAGACGGCCAAGGTTGCGGGAGTCTCTTC	716
AATGAGCCCCACAACCCTTTTCCTTACGGCCTGTGC	1000
CCTGTGGTTGCCTCAGGCCTCAGGACGAAGCTCACT	822
TCCACAATTCCCAGGAGTCTCTGCGGCCGCGCGGAG	830
CTGGAACCGCAGGATCCTTGCTGCGTCCTCTCGGTC	2340
TGAACTGTGGGCGGGGCACTCTGGGAGCGCAAAAGC	767
TAAAACACCATGAAACTCTGTGGTGAGTGGGAGGTG	755
CAAAGTGATGGGGCAAATGGTTGTGGTTTTGGGTGG	1320
CAGGGCCAACCCACTGCGCCAGCATGTTGTCAGGTC	841

Sequence	RUNX1 binding intensity
TTACACAACAGTAAACTATGTTTAGCGGTTAATCCA	866
TGGCATAAATATGTGGTCACTTATCATGCCTTCTCA	835
GTCCCTTGTGGCTACACAGGCAGCAAGCAGGTGGCA	720
GGCTCCAAAACCACAGGGCGGAGGCTCCCGCGCGGC	2290
TCCGTGACGTGCGGTGTAGTTGGGGAATCGCACCGT	865
CTAGCTGTGGACTGGAAACGAGTGGTTTTTGTGATC	745
TTGCGACTCGCGGTGACCCCTACGCGGCACTCTCTC	877
TTATCTCCTCTTTTTTTTTTTTTTTTTGGTTTTGCT	1870
CCAAGTGTAAAACAGAAGCTCAACCACGAATCTTAC	750
CGCCGAACGTAGTGACGTAGCGCGCAGCCGCAGCGG	656
AACAAGCCACAGGTGAGTCAGCATGCCACCTCCCGA	773
ATTTAGGAGGGAGTTTCCAGTACCACAACCTCACAG	850
GGGCGGGGCATTGTGGGTAAGAGGAGACGCTGGGGC	871
GCCCCTGATAGCGTCCTCACCATCCCCACAGCGCCT	1100
GTGCTGCGGCCGCGGCCGAGAGAGGCAGTAGATCCC	823
AACCTCCGACTTTCGGCCGCGCAGCGGTGGGCTGAG	694
GTGCATCCACCACATGGTTCATTCTCAGGCTATGGT	828
GCCGCCACAAGCTGCCTGGGTGACCCGAAAACGGCA	751
ACGTGGTCAGATCCCCAACCCTTCCCTGAAAGGGGA	839
CCTTGCTACAGCATGTTTTGACCACGAGCCCAGGAG	995
TCTGCACCTCCGAGAAGCCTCCGTGGTTTGCTGCCA	796
CGGCCTCTTCGGCCAAAACTCCGGCCCGCGGTCCCG	932
CTCTCAGACTCAGAATGAGGTGGCGGTAGGTGGGGT	690
TCATGTACGTGAAGCCCAGCTCCCGCAGCGCGCCCA	788
ATGGCGAAGCAGCATGCCCTCAACCCACATACGGCA	885
